# Values joined by “and” are separate entries in the source; they are usually repeats but may differ in a detail not shown here. Equal values may be shown once. The shares of active, inactive and inconclusive entries below differ from those in the screen. For some assays here: Where the call is inconclusive, the potency comes from a doubtful curve fit. The source holds several records for some structures; these can differ, active in one and inactive in another. Active and inactive are the calls of the source. The call rests on the fitted dose curve; in most records, active means well fitted activation curve with a large enough effect in the repeat runs; inconclusive means weak or mixed curves; inactive means flat fitted curve, though single readings scatter.
# Tests used:
# [1] = A CellTox Green Cytotoxicity Assay to monitor cytotoxicity in HepG2 cells - 24 hour (AID 1224878); further: nearly all actives have a fitted effect of over 45% in size
# Procedure, shortened: (§1)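 HepG2, 600 cells/well premixed w/ CellTox Green; 5 h settle, 37 C/5% CO2; pintool cpd add (DMSO); 37 C, 40 h; fluorescence read at 0, 8, 16, 24, 32, 40 h.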
# [2] = A CellTox Green Cytotoxicity Assay to monitor cytotoxicity in HepG2 cells - 40 hour (AID 1224879); further: nearly all actives have a fitted effect of over 40% in size
# Procedure, shortened: as §1
# [3] = A CellTox Green Cytotoxicity Assay to monitor cytotoxicity in HEK293 cells - 32 hour (AID 1224881); further: nearly all actives have a fitted effect of over 40% in size
# Procedure, shortened: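 Read-out: fluorescence of a cell-impermeant cyanine dye staining DNA of dead cells, proportional to cytotoxicity. HEK293, 600 cells/well with reagent, compound (23 nL DMSO) added after 5 h; reads at 0, 8, 16, 24, 32, 40 h.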
# Potency means the concentration at half of the fitted maximal effect; tags describe the fitted curve by direction and shape.
smiles,measurement,setting,value
O=c1[nH]cnc2ccccc12,Potency,[1],inactive
CCCO,Potency,[1],"inconclusive: 21.9 µM [activator, single point]"
same,Potency,[2],"inconclusive: 21.9 µM [activator, single point]"
CC/C=C\CCCCCO,Potency,[1],"inconclusive: 61.7 µM [activator, single point]"
same,Potency,[2],"inconclusive: 61.7 µM [activator, single point]"
O=C(O)CNC(=O)c1ccccc1I,Potency,[2],inactive
C=CCCCCCCCCC(=O)OCCCC,Potency,[1],"inconclusive: 21.9 µM [activator, single point]"
same,Potency,[2],"inconclusive: 21.9 µM [activator, single point]"
CC1(C)CC(N)CC(C)(CN)C1 (centres undefined),Potency,[1],"inconclusive: 21.9 µM [activator, single point]"
same,Potency,[2],"inconclusive: 21.9 µM [activator, single point]"
CCCCC(=O)N(C)C,Potency,[1],inactive
same,Potency,[3],inactive
O=C(O)C[C@H](O)C[C@H](O)/C=C/c1c(C2CC2)nc2ccccc2c1-c1ccc(F)cc1,Potency,[2],active: 2.61 µM
NCCC(O)(P(=O)(O)O)P(=O)(O)O,Potency,[1],inactive
O=C(O)CO,Potency,[1],"inconclusive: 61.6 µM [activator, single point]"
same,Potency,[2],"inconclusive: 61.6 µM [activator, single point]"
O=[N+]([O-])c1ccc(Cl)cc1Cl,Potency,[1],inactive
Nc1nc2c(ncn2COCCO)c(=O)[nH]1,Potency,[2],inactive
CN(C)CC/C=C1\c2ccccc2COc2ccccc21,Potency,[2],"inconclusive: 26.8 µM [activator, single point]"
NC(=O)c1cnccn1,Potency,[1],"inconclusive: 40.3 µM [activator, partial curve, poor fit]"
same,Potency,[2],"inconclusive: 40.3 µM [activator, partial curve, poor fit]"
O=C(O)[C@H](O)[C@@H](O)[C@H](O[C@@H]1O[C@H](CO)[C@H](O)[C@H](O)[C@H]1O)[C@H](O)CO,Potency,[1],inactive
Cc1cc(=O)n(-c2ccccc2)n1C,Potency,[1],"inactive and inconclusive: 21.9 µM [activator, partial curve, poor fit]"
same,Potency,[2],"inconclusive: 21.9 µM [activator, partial curve, poor fit]"
same,Potency,[3],active: 44.8 µM
CC(C)C(=O)Nc1ccc([N+](=O)[O-])c(C(F)(F)F)c1,Potency,[1],"inconclusive: 40 µM [activator, partial curve, poor fit]"
C=C1C2CCC(C2)C1(C)C (centres undefined),Potency,[2],"inconclusive: 21.9 µM [activator, single point]"
C=C(C#N)C(=O)OCC,Potency,[2],inactive
C[C@H](CCC(=O)O)[C@H]1CC[C@H]2[C@@H]3[C@H](O)C[C@@H]4C[C@H](O)CC[C@]4(C)[C@H]3C[C@H](O)[C@]12C,Potency,[1],inactive
